Laboratory results from PMC5650360, “Maslinic acid promotes autophagy by disrupting the interaction between Bcl2 and Beclin1 in rat pheochromocytoma PC12 cells” (Oncotarget, 2017).
Results are given in words; binding and its absence hold for the method and conditions named. For part of these data: In cells and extracts the contact can be indirect. Some entries that bind do so weakly or less than the wild type.

Sequences of proteins named here, by UniProt entry; tags and fusion partners are left off. A change or cut given only in a name is not applied to a line headed by its entry. Residues count along the entry.
UniProt P49950, residues 1-156: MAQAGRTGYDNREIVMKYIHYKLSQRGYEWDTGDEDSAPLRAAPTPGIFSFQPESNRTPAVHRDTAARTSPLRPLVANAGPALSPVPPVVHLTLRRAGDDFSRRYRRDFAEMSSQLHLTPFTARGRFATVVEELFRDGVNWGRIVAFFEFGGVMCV
UniProt Q91XJ1: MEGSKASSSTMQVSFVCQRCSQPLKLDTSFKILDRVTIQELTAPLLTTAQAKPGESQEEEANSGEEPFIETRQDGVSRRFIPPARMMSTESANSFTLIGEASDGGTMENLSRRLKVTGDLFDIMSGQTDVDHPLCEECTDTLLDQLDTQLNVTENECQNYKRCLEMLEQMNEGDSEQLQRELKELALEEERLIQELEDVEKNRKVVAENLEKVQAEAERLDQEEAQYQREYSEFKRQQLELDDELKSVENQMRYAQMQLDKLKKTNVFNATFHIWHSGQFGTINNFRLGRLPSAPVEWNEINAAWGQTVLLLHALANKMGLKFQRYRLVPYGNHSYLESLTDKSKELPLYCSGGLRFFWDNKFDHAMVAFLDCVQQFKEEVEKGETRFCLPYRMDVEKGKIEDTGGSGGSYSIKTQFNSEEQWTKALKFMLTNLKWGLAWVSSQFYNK

Key:
[1] = target: BH3 motif containing region of rat Bcl2 (residues 1-156), un-tagged version (rat) (UniProt P49950); experiment: ITC; 200 μM Beclin1 titrated into 20 μM Bcl2 containing 10 μM MA, 50 mM Tris pH 8.0, 150 mM NaCl; both purified
[2] = target: BH3 motif containing region of rat Bcl2 (residues 1-156), un-tagged version (rat) (UniProt P49950); experiment: dynamic light scattering; as a5 but with a final concentration of 10 μM MA; both purified
[3] = target: BH3 motif containing region of rat Bcl2 (residues 1-156), un-tagged version (rat) (UniProt P49950); experiment: SEC-MALS; as a3 but with a final concentration of 10 μM MA; both purified
[4] = target: GST-tagged rat Bcl2 (residues 1-156) (rat) (UniProt P49950); experiment: condition: only in the presence of MA (20 μM and 10 μM tested); pull-down; as a1 but in the presence of MA (20 μM and 10 μM tested); both purified
[5] = target: GFP-tagged rat Bcl2 (residues 1-156) (rat) (UniProt P49950); experiment: condition: only cells treated with 10 uM MA for 12 hours; co-IP; as a9 but the cells were treated with 10 uM MA for 12 hours
[6] = target: GFP-tagged rat Bcl2 (residues 1-156) (rat) (UniProt P49950); experiment: co-IP; PC12 cells transfected with GFP-tagged Bcl2, lysate precipitated with GFP antibody and Dynabeads protein G, blot for endogenous Beclin1; without MA

binding [1] | binding [2] | binding [3] | binding [4] | binding [5] | binding [6] | Substance
no binding (condition: with 10 μM MA) | no binding (condition: with 10 μM MA) | no binding (condition: with 10 μM MA) | no binding | – | – | rat Beclin1 BH3 domain and Coiled Coil domain (residues 100-266) (from UniProt Q91XJ1 100-266) (domain or fragment)
– | – | – | – | no binding | binds | endogenous Beclin1 of PC12 cells (from UniProt Q91XJ1 1-448)
